Assay results from the RNAGym collection of RNA variant scans (doi:10.7554/elife.90254).
Read counts are not given, so values of variants with three or more changes are uncertain.

B1: LINE1-full (parent)
chain: UACGUAGGUGGUUUUCCCCUGAUAGUGCUAAGGGGGCCUGGAAGUUUGGACUGGGCAGAGCUCAACACAGCGUGGCAAAGUGGCUGUGGCUAGACUGCCUCUCUGGAUUCCUCGUCACUCAGCAGGGCAUCUCUGAGAGAAAUGCC

Variants of: B1
Assay: self-cleavage, relative activity (ratio to wild type); higher = more cleavage; in vitro, sequencing; the parent is a self-cleaving ribozyme

Variant | self-cleavage
A6G U109C A142G | 0.66
U5C A42G A69U | 0
U5C A24G C37U | 1.17
A6U G33U U91C | 1.1
U5C U14A A42G A117U | 0.68
U5C U13C A129G C145G | 0.75
U5C U14C U109C C113A | 1.66
U5C A30G G88C U102C | 0.25
U5C U15C U96C U143C | 0.38
A6G U104C G126A | 1.07
A6G U52A A136U | 1.55
U5C U12C U96C A136G | 0.29
A6G U45C U46C C95U | 0
A6G U13C A67G U119C G125U | 0.28
U5C A30G U85A | 0.16
U5G A43G A78U G127A U132A | 2.07
A6G U115C U130C | 0
U5C C98U U119C A129U C131U | 0.59
A6U C84G A124C G126A | 0.11
A6U U20A U134C | 0.87
U5G C38U A43G U91A U96C U132C | 0
A6G G33A U62A | 0.11
U5C A94G U96C G144A | 0
A6C U12A U23A U26C U130A A136G A142G | 0

Variant | self-cleavage
A6G A22G U119C | 1.38
G7A C28G U130C | 0.78
U5C U14A U39C | 1.29
U5C U73A A77G | 0.26
U5C U13C U85A | 0.04
A6U G60A U96A | 0.02
U5C U13C A79G A129C A141G | 0
U5C U13C A64U A69U A121G U134C | 0.43
U5C G8U G34U C123U | 1.64
A6G G7U U15C G35A A65G | 0.12
U5C A78G U115A | 0
A6G A79G U96A | 0.13
A6G G35A A65G U73A U102C | 0
A6U A77G A136G | 1.63
A6U U20A A69U U108C U109A | 0.19
A6G C19U U23A A142G | 1.53
A6G U47A U143C | 0.7
A6U U46C A94C | 0.12
A6G G72A A121U G135A | 0.89
A6G U109C A140U | 0.44
A6G U62C A129G | 0.12
U5C C37U C98G | 0.12
G7A A59G C76U | 0.09
A6G U100C A117U A129G | 2.45

Variant | self-cleavage
A6G A43G G72U | 0.76
G7A U9G U132C | 0.82
A6G A43U U81A G114A A136G | 1.86
U5C A57U A117G U143A | 0
U5C U12C A65G U112C | 0
A6G U13C U96C | 0.77
U5C U20A U39C | 0.73
U5C G33A C133G A140G | 1.15
A6C U12A A43G U62C U132C | 0
U5C U9C U14C U100C | 2.55
U5C U13C U104G | 0
A6U A43C U46A | 0.74
U5C A79G A92U | 0.91
A6U U9C U14C U45C A69G U81A U109A U119A | 1.08
A6G A22U U73C | 0.3
U5C U9A U14C A43G C61U U134A | 0.21
G7A A64G A69U A124G | 0
U5C U47C A107G C123U U130C A136U | 1.34
U5C A79G U102C | 0
A6G U81A A129G | 1.45
A6G U13C A140G | 1.01
A6U U13C U47C | 1.21
A6G A67U U108C A129G A141G | 0.54
U5C U47C U115C | 0

Variant | self-cleavage
A6U A57G A92U | 0
U5C U87C G93U | 0.07
U5C U62C U115C | 0.55
A6U U29C U46A C113U | 1.25
U5C A43G A64U U81A | 1.15
U5C U15C U20A | 1.2
A6G U46C U100A A124C | 1.97
A6U G33C U81A A107G A121G | 2.16
A6C A59G A78U G125A | 0.2
A6G U23C A24G U143C | 0
U5G A42G A79G | 1.31
A6G A59G A92G | 0.38
U5C A129U U132A | 1.52
U5C U52A U132C | 0.65
G7A U12C A77G | 1.24
U5C A121G G126C | 2.92
U5C A136G A142G | 1.28
U5C A59G C133U | 0.38
U5C G44A A57U U62C U96C | 0
A6C U130C A136G | 0.96
U5C A140G U143A | 0.63
U5C U13C U26G | 0.85
A6U U26C U102A G127C | 0.44
U5C A67G A107G A136C | 0

Variant | self-cleavage
A6G A65G A124U | 0.34
A6G U12A C56U U100C | 0.17
U5C U13C U20A U46C A77U A124U G144A | 0.95
A6G U39C U130C | 0.77
A6U U13C G35A U62C U91C A92U A124U | 0.23
A6G A69C U112C | 1.05
U5C A69G U115C | 1.31
U5C G36U U46A U85C A92G | 0.09
U5C U9A C19A U52A G80A | 0.53
A6G U39A U52C G54A U112C | 0.57
A6U A24U A129G | 0.7
U5C U14C A94U U109C | 0.86
A6C U85C G86C | 0.16
U5C U100C U115C | 1.23
A6G U12C A22G U29A U119A | 0.72
U5C U13C G40A | 0.93
A6U G36A G125U C131U G144A | 1.01
U5C U46C A64G A79G A141G | 0
A6G A24G A50U A78C | 0.51
A6G U81A G105A | 1.69
A6G A129G U143C | 1.21
U5C U96A U109C | 0
A6U U52C A57G A59G U119C A142G | 0
G7A U12G U73A A78G | 0.41

Variant | self-cleavage
U5C A30G A69U A77G | 0
A6G U15C G106A | 1.35
U5C U108C A121U | 0.92
A6G G88A U104A | 0.06
U5C A92G A117U | 0.1
U5C A31U U45A A77G | 0.8
A6G U20C A57G G97U | 0.42
U5C U100A A107G | 0
U5C U13C G70A A124G | 0
U5C U85A A136G A141G | 0.12
A6U U39G U73C | 0.57
U5C C37U A79G | 0.93
A6G U14C U39G A67C | 0
U5C G32A U46C | 0.7
U5C G35A C37G A141G | 0.9
U5C U20C A50G | 0.92
U5C A31U U115A A136U A141G | 1.19
A6U G72A U91A C95G | 0.04
A6G U20C A22U U132C A141U | 0.72
A6G G82A A107G | 1.53
U5C U26A C84U | 0.3
A6G G60C A67U A79U A124G A129G | 0.16
A6G A42G U45A U62C U81A | 0.09
A6U U14C A59G A64G A140G | 0.5

Variant | self-cleavage
A6G U12C A64G A78G C98U | 0.33
U5C A30G A124U A141G | 0.88
U5C A69U A79G | 0.06
A6G U45C G58U | 0.22
A6G U112C A141G | 1.33
A6G A22G U100C | 0.89
G7A U15C A65G | 0.06
A6C A57G A79G A138G | 0
A6G A69U U104C | 0.16
A6G A57G U108C A124G A140G | 0
G7A A59G G60A U91C | 0.05
U5C A43U U45G U143C | 0
A6U U14C C19U A67G G122A A129G A141G | 1.57
U5C U47A C61U | 0.04
A6C U45C A121U | 1.01
G7A A69G G88A A92U A94U U104C A129U | 0.02
U5C U96A A121U | 0.4
A6G A129U A141G | 0
U5C A43G C61U U62C G89U A138G | 0.09
A6G G25A A140U | 0.96
A6U G34A A92G U102C A140G | 0.2
A6C U14C U112C | 0.66
A6G A42G A67G A79G | 0.61
